Out of some 310,000 compounds screened, about 2,200 (0.71%) showed an effect of 50% or more. The effect is printed as a negative number. Some of the results follow.
These compounds were tested against human ether-à-go-go-related gene (hERG) potassium channel (human, UniProt Q12809) (assay: primary screen, population patch clamp on CHO cells stably expressing hERG).
human ether-à-go-go-related gene (hERG) potassium channel, sequence (Q12809 whole entry, looked up): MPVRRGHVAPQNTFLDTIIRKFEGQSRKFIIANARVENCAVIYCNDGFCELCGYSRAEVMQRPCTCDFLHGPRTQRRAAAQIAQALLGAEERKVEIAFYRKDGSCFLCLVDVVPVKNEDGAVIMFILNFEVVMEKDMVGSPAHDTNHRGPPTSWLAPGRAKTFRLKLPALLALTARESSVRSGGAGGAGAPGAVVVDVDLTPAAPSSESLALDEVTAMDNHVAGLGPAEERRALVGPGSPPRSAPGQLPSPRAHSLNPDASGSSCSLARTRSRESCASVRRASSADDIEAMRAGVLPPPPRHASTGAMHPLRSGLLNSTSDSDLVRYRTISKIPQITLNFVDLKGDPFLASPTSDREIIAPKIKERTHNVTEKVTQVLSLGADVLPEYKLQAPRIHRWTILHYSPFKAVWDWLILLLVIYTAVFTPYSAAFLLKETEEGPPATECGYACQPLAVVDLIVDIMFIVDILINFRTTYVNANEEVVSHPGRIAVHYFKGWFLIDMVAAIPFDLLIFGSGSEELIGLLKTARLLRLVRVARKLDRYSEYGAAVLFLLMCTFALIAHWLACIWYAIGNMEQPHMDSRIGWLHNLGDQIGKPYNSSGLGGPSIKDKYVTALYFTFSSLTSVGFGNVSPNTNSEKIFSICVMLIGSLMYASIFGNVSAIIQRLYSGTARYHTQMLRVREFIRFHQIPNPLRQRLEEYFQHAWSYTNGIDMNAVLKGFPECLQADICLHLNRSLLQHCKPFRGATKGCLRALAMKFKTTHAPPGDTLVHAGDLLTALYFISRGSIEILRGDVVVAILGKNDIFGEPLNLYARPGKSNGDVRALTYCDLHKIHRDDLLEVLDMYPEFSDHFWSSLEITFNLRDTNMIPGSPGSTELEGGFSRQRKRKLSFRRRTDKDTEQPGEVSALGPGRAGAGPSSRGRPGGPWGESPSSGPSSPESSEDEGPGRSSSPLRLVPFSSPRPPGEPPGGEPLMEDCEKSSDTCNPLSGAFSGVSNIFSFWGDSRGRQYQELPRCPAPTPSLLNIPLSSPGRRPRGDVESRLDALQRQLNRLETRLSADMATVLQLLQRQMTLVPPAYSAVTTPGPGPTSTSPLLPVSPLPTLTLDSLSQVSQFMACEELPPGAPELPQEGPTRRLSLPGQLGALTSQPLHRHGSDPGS

SMILES | hERG current change (%, negative = inhibition) at 1uM [%]
O=C1[C@@H]2Cc3c([nH]c4ccccc34)C(c3ccccc3)N2C(=O)CN1CCO (stereo partly shown) | 0.149
COc1cccc(COC(=O)C2CCN(S(=O)(=O)c3cccs3)CC2)c1OC | 3.86
O=S(=O)(NCCSc1ccccn1)c1ccc(Cl)cc1 | -1.28
COC(=O)CN(n1cnnc1)S(=O)(=O)c1ccccc1 | 10.5
CCCCOP(=O)(OCCCC)C(Nc1ccccc1)c1ccc2c(c1)OCO2 (stereo not shown) | -1.1
CC1(CC(=O)N/N=C/c2cc3c(cc2Br)OCO3)OCCO1 | 3.85
CCN(CC(=O)NCc1cccs1)C(=O)/C=C/c1cc(OC)ccc1OC | 9.08
O=C(CCNC(=O)c1ccc(Cl)cc1)Nc1ccc(S(=O)(=O)N2CCCCC2)cc1 | -0.658
Cc1ccc(C)c(OCCC(=O)OCC(=O)NC(=O)NC2CCCC2)c1 | 7.89
CCOCCCNCc1ccc(OCc2ccccc2Cl)cc1 | -0.539
Cc1ccnc(NC2c3ccccc3C(=O)N2Cc2ccccc2Cl)c1 (stereo not shown) | 18.7
O=C(Nc1ccc(Cl)cc1)C1CCCN(c2cnccn2)C1 (stereo not shown) | 10.2
Cc1ccc(NC(=S)NNc2ncc(C(F)(F)F)cc2Cl)c(C)c1 | 12.5
Cc1nc(NC(=O)C2CC2)sc1C(=O)Nc1ccc(Br)cc1 | 24
O=C(c1ccccc1)N1CCC(c2nc3c(nnn3Cc3ccccc3Cl)c(=O)[nH]2)CC1 | 21.6
CC(Sc1nc2ccccc2c(=O)n1C)C(=O)NC1CCCCC1C (stereo not shown) | 3.93
CCCC(C(=O)NC1CCCC1)N(C(=O)Cn1nnc(-c2ccc(C)o2)n1)C1CCCC1 (stereo not shown) | -0.731
C=CCNC(=S)NNC(=O)c1cccn(Cc2ccc(Cl)cc2)c1=O | -0.762
Cc1cccc(NC(=O)CCS(=O)(=O)c2ccc(Br)cc2)c1 | 10.1
Cc1c(-c2ccccn2)c(=O)[nH]n1-c1ccc(F)cc1 | -0.408
O=C(C1CCCN(S(=O)(=O)c2cccc3nonc23)C1)N1CCN(c2ccccc2)CC1 (stereo not shown) | 2.02
COc1ccc(CN(C)C(=O)C2CSC3(C)CCC(=O)N23)cc1 (stereo not shown) | 7.07

SMILES | hERG current change (%, negative = inhibition) at 1uM [%]
Cc1ccc(Sc2c(C(=O)Nc3ccc(F)cc3F)c(C(F)(F)F)nn2C)cc1 | 15.7
CC(c1ccccc1)N1CNc2c(c(=O)n(C)c(=O)n2C)C1 (stereo not shown) | 11
CC(=O)n1nc(-c2ccncc2)nc1SCC(=O)Nc1cccc(Cl)c1 | 24.5
O=[N+]([O-])c1cccnc1N1CCN(c2ccccc2F)CC1 | 0.0476
CN(C(=O)CC1C(=O)NCCN1CC1CCCCC1)C1CCOCC1 (stereo not shown) | 10
Cc1ccc(C(=O)COC(=O)C2CC(=O)N(c3nc(-c4ccccc4)cs3)C2)cc1C (stereo not shown) | 3.96
NNC(=O)/C(=C\c1cccs1)NC(=O)c1ccccc1 | 11.3
COc1ccc(C(CNC(=O)CSc2ccccc2F)N2CCOCC2)cc1 (stereo not shown) | 12.1
COc1ccc(N2CCN(C(=O)c3ccc(-c4ccccc4)cc3)CC2)cc1 | 16.3
O=C1N=C(N2C=CC(=C3C=CNC=C3)C=C2)/C(=C/N=NC(=O)c2ccccc2)S1 | 20.3
N#Cc1ccccc1NC(=O)C(=O)NCC1CCCN1S(=O)(=O)c1cccs1 (stereo not shown) | 22.8
CCN1C(=O)c2cccc3c(S(=O)(=O)Nc4ncccc4C)ccc1c23 | 9.17
COc1ccccc1-c1nnc(SCc2nc3ccccc3[nH]2)n1C | 7.54
NS(=O)(=O)c1ccc(CNC(=O)c2ccc3ccccc3n2)cc1 | 11.8
Cc1ccc(S(=O)(=O)Nc2c(NC3CCCCC3)c3ccccc3oc2=O)c(C)c1 | -0.936
CCCN1/C(=C(/C#N)C2=NS(=O)(=O)c3ccccc32)N(C)c2ccccc21 | -1.66
COc1ccc(/C=C(\C#N)C(=O)Nc2ccccn2)cc1 | 10.9
Cc1cc(S(=O)(=O)N2CCC(N3CCCCC3)CC2)ccc1-n1cnnn1 | 10.2
Br.CC(=O)c1ccc(N2Cc3ccccc3C3(CCOCC3)C2=N)cc1 | -36.9
CCCCN(CC)C(=O)c1ccc(Cl)cc1 | 21.8
COc1ccc(C(=O)Cn2cc([N+](=O)[O-])nc2C)cc1 | 14.2
CC1=C(C(=O)Nc2ccc(Br)cc2)C(c2ccco2)NC(=O)N1 (stereo not shown) | 8.34

SMILES | hERG current change (%, negative = inhibition) at 1uM [%]
S=c1[nH]nc(C2CCCCC2)n1/N=C/C=C/c1ccccc1 | 10.7
COc1cc(CC(=O)Nc2cc(S(C)(=O)=O)ccc2Cl)cc(OC)c1OC | 10.9
O=C(c1scc2c1CCCC2)N1CCCCC1 | 20.2
Cc1onc(-c2c(Cl)cccc2Cl)c1C(=O)Nc1ccc2c(C(F)(F)F)cc(=O)oc2c1 | -9.17
O=C(Cn1nc2ccccc2n1)N/N=C/c1cc([N+](=O)[O-])ccc1O | 0.346
CCCc1nnc(NC(=O)CCC(=O)N2CCN(S(=O)(=O)c3ccc(F)cc3)CC2)s1 | 10.2
CCN(C(=O)c1ccc(NC(C)=O)cc1)c1ccccc1C | 11.2
COc1cccc(NC(=O)[C@H](CC(C)C)NC(=O)N2CCn3c2nc2ccccc23)c1 | 20.3
CN1/C(=C\C(=O)COC(=O)Cn2nnc(-c3ccccc3)n2)C(C)(C)c2ccccc21 | 14.2
CCCc1cc(=O)[nH]c(SCC(=O)c2cc(C)n(-c3c(C)n(C)n(-c4ccccc4)c3=O)c2C)n1 | 15.3
Cc1ccc(C2(C)NC(=O)N(CC(=O)N3CCN(S(=O)(=O)c4ccc(Cl)s4)CC3)C2=O)cc1 (stereo not shown) | -16.8
O=C(Nc1ccc([N+](=O)[O-])cc1)c1ccccc1 | 13.4
Cc1ccc(C(=O)NC(=S)Nc2ccc(N3CCOCC3)cc2)cc1 | 16.3
CSCC[C@H](NC(=O)OC(C)(C)C)c1nnc(SCC(=O)Nc2c(C)cccc2C)o1 | -4.41
CCc1c(C)nc2ncnn2c1NCc1cccs1 | 6.69
CN(CC(=O)NCCc1ccc(F)cc1)Cc1cccc(Cl)c1 | 8.65
CCOC(=O)CSc1nc2cccnc2n1C | 12.5
CCC(C)Sc1nc(C)nc2c1c(=O)n(C)c(=O)n2C (stereo not shown) | -9.12
O=C1CCCc2nc(N3CCc4ccccc43)ncc21 | 2.05
COc1ccccc1-c1cc(C(=O)N2CCN(S(=O)(=O)c3ccc(C)cc3)CC2)[nH]n1 | 6.32
COc1ccc(-c2ccc(SCC(=O)N3CC(=O)Nc4ccccc43)nn2)cc1 | -16.5
Cc1cnc(C(=O)OCC(=O)Nc2ccc3c(c2)OCCO3)cn1 | 8.91

SMILES | hERG current change (%, negative = inhibition) at 1uM [%]
CCn1c(=O)c2ccccc2n(CC(=O)NCCC2=CCCCC2)c1=O | 12.1
O=S(=O)(c1ccc(OC(F)(F)F)cc1)N1CCC(O)(c2cccc(C(F)(F)F)c2)CC1 | 7.24
O=C(Cn1c(=O)sc2ccccc21)NCc1ccco1 | 9.89
O=C1OC(N2CCN(C(=O)C3CCCO3)CC2)c2ccccc21 (stereo not shown) | 11.7
Cc1ccc(CNC(=O)CN(C)S(=O)(=O)c2ccc3c(c2)n(C)c(=O)c(=O)n3C)cc1 | 13.1
O=C1CCC(C(=O)Nc2nnc(C3CC3)s2)=NN1 | 11.5
Cc1ccc(Cn2c(C(=O)O)cc3sccc32)cc1 | 5.78
Cc1ccc(CNC(=O)C2CCCN(c3nc4ccsc4c(=O)s3)C2)cc1 (stereo not shown) | 5.42
Cc1ccc(S(=O)(=O)N2CCN(C(=O)c3ccc4ccccc4n3)CC2)c(C)c1 | 1.43
COc1ccc(-n2c(SCC(=O)Nc3cc(C)on3)nc3c([nH]c4ccccc43)c2=O)cc1 | 16
Cc1nnc(-c2ccccc2)[nH]c1=O | 6.59
CCOC(=O)C(CCCOc1cccc(CC)c1)C(=O)OCC | 12.9
O=C(O)c1ccc2c(c1)C(=O)N(c1ccc(Cl)cn1)C2=O | 9.94
Cc1ccc2ncc(NC(=O)c3ccc(F)cc3)c(=O)n2c1 | 2.57
Cc1ccc(SCC(=O)O/N=C(\N)c2ccncc2)cc1 | 5.26
COC(=O)[C@@H]1Cc2c([nH]c3ccccc23)C2CCC(=O)N21 (stereo partly shown) | 13.5
Cc1ccc(-c2n[nH]c(=S)n2/N=C/c2sccc2C)cc1 | 14
O=C(CSc1nc2ccccc2c(=O)[nH]1)Nc1ccc(N2CCOCC2)c(Cl)c1 | 16.4
O=C(NC1CCCCCC1)c1ccc(-n2cnnc2)cc1 | 12.8
NS(=O)(=O)c1ccc(CCNc2ccc(C(F)(F)F)cn2)cc1 | 9.53
CCOc1ccccc1N1CC(C(=O)N(CC)CC(=O)Nc2ccc3c(c2)OCCO3)CC1=O (stereo not shown) | 4.09
N#C/C(=C(/O)CCl)c1nc2c(s1)CCc1ccccc1-2 | 11.2

Reference: paper PMC4336329 (PLoS ONE, 2015)
